Here are results for 18 molecules from US11000038B2, “Pyridone compounds and agricultural and horticultural fungicides containing the same as active ingredients” (priority 2017, dated 2021).

Experiment [1] relates to barley powdery mildew fungi (Blumeria graminis f. sp. hordei). The experiment can be described thus: Test Example D: barley powdery mildew, spray treatment of barley plants. To be noted: barley powdery mildew, spray treatment.
The subject of experiment [2] is grape downy mildew fungus (Plasmopara viticola). The experiment can be described thus: Test Example G: grape downy mildew, spray treatment of grape plants. As to conditions: grape downy mildew, 250 ppm spray, 7 to 10 days after inoculation.
Experiment [3] has as its system gray mold fungi (Botrytis cinerea). In words: Test Example B: tomato gray mold, spray treatment of tomato plants. As to conditions: tomato gray mold, spray treatment.
Experiment [4] relates to cabbage Alternaria sooty spot fungi (Alternaia brassicicola). In words: Test Example C: cabbage Alternaria sooty spot, spray treatment of cabbage plants. In kind it is in vivo. To be noted: cabbage Alternaria sooty spot, spray treatment. An excerpt:
[Test Example C] Cabbage Alternaria Sooty Spot
Test plants (cabbage variety: Shikidori) were cultivated until the cotyledons extended after the sowing of seeds.
<Control Value> Control value=100{1−(n/3)}

The subject of experiment [5] is wheat brown rust fungi (Puccinia recondita). The experiment can be described thus: Test Example E: wheat brown rust, spray treatment of wheat plants. Type of experiment: in vivo. To be noted: wheat brown rust, spray treatment.

SMILES strings stand for the structures.

For the molecule `CCc1c(-c2c(F)cccc2F)n(-c2cccc(Br)c2C)cc(Br)c1=O` [Compound 526], in experiment [1], the “Test D control value” is listed as “L (L shows the control value of 50% or less)”. Also, the “Test G control value” in experiment [2] is given as “L (L shows the control value of 50% or less)”. For the same molecule, the “Test B control value” in experiment [3] was “H (H shows the control value of more than 50%)”. In addition, the “Test C control value” in experiment [4] is “H (H shows the control value of more than 50%)”. The “Test E control value” in experiment [5] was “H (H shows the control value of more than 50%)”.

Regarding `CCc1c(-c2c(F)cc(F)cc2F)n(-c2cc(OC)ccc2C)cc(Br)c1=O` [Compound 527], the “Test D control value” in experiment [1] is “H (H shows the control value of more than 50%)”. Also, the “Test G control value” in experiment [2] is “H (H shows the control value of more than 50%)”. Further, the “Test B control value” in experiment [3] is given as “H (H shows the control value of more than 50%)”. Besides, the “Test C control value” in experiment [4] was “H (H shows the control value of more than 50%)”. The “Test E control value” in experiment [5] was “H (H shows the control value of more than 50%)”.

For `CCc1c(-c2c(F)cc(F)cc2F)n(-c2cccc(C)c2C)cc(Br)c1=O` [Compound 528, 5-bromo-1-(2,3-dimethylphenyl)-3-ethyl-2-(2,4,6-trifluorophenyl)pyridin-4(1H)-one], the “Test D control value” in experiment [1] is “H (H shows the control value of more than 50%)”. In addition, the “Test G control value” in experiment [2] is listed as “L (L shows the control value of 50% or less)”. Besides, in experiment [3], the “Test B control value” is “H (H shows the control value of more than 50%)”. Moreover, the “Test C control value” in experiment [4] is recorded as “H (H shows the control value of more than 50%)”. The “Test E control value” in experiment [5] is listed as “H (H shows the control value of more than 50%)”.

As to `CCc1c(-c2c(F)cc(F)cc2F)n(-c2cc(Br)ccc2C)cc(Br)c1=O` [Compound 529], the “Test D control value” in experiment [1] is given as “H (H shows the control value of more than 50%)”. Also, in experiment [2], the “Test G control value” is reported as “L (L shows the control value of 50% or less)”. For the same molecule, the “Test B control value” in experiment [3] is listed as “H (H shows the control value of more than 50%)”. The “Test C control value” in experiment [4] is “H (H shows the control value of more than 50%)”. In experiment [5], the “Test E control value” is recorded as “H (H shows the control value of more than 50%)”.

Take `CCc1c(-c2c(F)cc(F)cc2F)n(-c2cccc(F)c2C)cc(Br)c1=O` [Compound 530]: the “Test D control value” in experiment [1] is listed as “H (H shows the control value of more than 50%)”. In experiment [2], the “Test G control value” is on record as “L (L shows the control value of 50% or less)”. For the same molecule, in experiment [3], the “Test B control value” is “H (H shows the control value of more than 50%)”. Besides, the “Test C control value” in experiment [4] is listed as “H (H shows the control value of more than 50%)”. Moreover, the “Test E control value” in experiment [5] is given as “H (H shows the control value of more than 50%)”.

For the molecule `CCc1c(-c2c(F)cccc2F)n(-c2ccccc2)cc(Br)c1=O` [Compound 531], the “Test D control value” in experiment [1] is on record as “L (L shows the control value of 50% or less)”. Besides, the “Test G control value” in experiment [2] is given as “L (L shows the control value of 50% or less)”. Moreover, the “Test B control value” in experiment [3] is “H (H shows the control value of more than 50%)”. Also, the “Test C control value” in experiment [4] is “H (H shows the control value of more than 50%)”. In experiment [5], the “Test E control value” is listed as “L (L shows the control value of 50% or less)”.

As to `CCc1c(-c2c(F)cc(F)cc2F)n(-c2cc(OC)ccc2C)cc(C)c1=O` [Compound 532], the “Test D control value” in experiment [1] was “H (H shows the control value of more than 50%)”. The “Test G control value” in experiment [2] was “L (L shows the control value of 50% or less)”. Also, in experiment [3], the “Test B control value” is given as “H (H shows the control value of more than 50%)”. Further, in experiment [4], the “Test C control value” is recorded as “H (H shows the control value of more than 50%)”. The “Test E control value” in experiment [5] is “H (H shows the control value of more than 50%)”.

In the case of `CCc1c(-c2c(F)cc(F)cc2F)n(-c2cccc(C)c2C)cc(C)c1=O` [Compound 533, 1-(2,3-dimethylphenyl)-3-ethyl-5-methyl-2-(2,4,6-trifluorophenyl)pyridin-4(1H)-one], the “Test D control value” in experiment [1] is reported as “H (H shows the control value of more than 50%)”. The “Test G control value” in experiment [2] is “L (L shows the control value of 50% or less)”. The “Test B control value” in experiment [3] is recorded as “H (H shows the control value of more than 50%)”. The “Test C control value” in experiment [4] is listed as “H (H shows the control value of more than 50%)”. Moreover, the “Test E control value” in experiment [5] is “H (H shows the control value of more than 50%)”.

For the molecule `CCc1ccccc1-n1cc(C)c(=O)c(CC)c1-c1ccccc1` [Compound 534], the “Test D control value” in experiment [1] was “L (L shows the control value of 50% or less)”. Moreover, the “Test G control value” in experiment [2] was “L (L shows the control value of 50% or less)”. The “Test B control value” in experiment [3] was “H (H shows the control value of more than 50%)”. Besides, the “Test C control value” in experiment [4] is reported as “H (H shows the control value of more than 50%)”. In addition, the “Test E control value” in experiment [5] is listed as “L (L shows the control value of 50% or less)”.

For `CCc1c(-c2ccccc2)n(-c2ccccc2Cl)cc(Br)c1=O` [Compound 535], in experiment [1], the “Test D control value” is listed as “L (L shows the control value of 50% or less)”. Moreover, the “Test G control value” in experiment [2] is given as “L (L shows the control value of 50% or less)”. Also, the “Test B control value” in experiment [3] is “H (H shows the control value of more than 50%)”. Moreover, the “Test C control value” in experiment [4] is “H (H shows the control value of more than 50%)”. In addition, in experiment [5], the “Test E control value” is “H (H shows the control value of more than 50%)”.

For `Cc1cn(-c2ccccc2)c(-c2ccccc2)c(C)c1=O` [Compound 537], the “Test D control value” in experiment [1] is listed as “L (L shows the control value of 50% or less)”. Moreover, the “Test G control value” in experiment [2] is on record as “L (L shows the control value of 50% or less)”. Also, in experiment [3], the “Test B control value” is listed as “H (H shows the control value of more than 50%)”. Besides, the “Test C control value” in experiment [4] was “H (H shows the control value of more than 50%)”. The “Test E control value” in experiment [5] is “H (H shows the control value of more than 50%)”.

For `CCc1c(-c2ccccc2)n(-c2ccccc2Cl)cc(C)c1=O` [Compound 538], the “Test D control value” in experiment [1] was “H (H shows the control value of more than 50%)”. In experiment [2], the “Test G control value” is given as “L (L shows the control value of 50% or less)”. Further, in experiment [3], the “Test B control value” is recorded as “H (H shows the control value of more than 50%)”. The “Test C control value” in experiment [4] is listed as “H (H shows the control value of more than 50%)”. The “Test E control value” in experiment [5] is given as “H (H shows the control value of more than 50%)”.

Turning to `CCc1c(-c2c(F)cccc2F)n(-c2cc(C)ccc2C)cc(C)c1=O` [Compound 540], in experiment [1], the “Test D control value” is reported as “L (L shows the control value of 50% or less)”. Moreover, in experiment [2], the “Test G control value” was “L (L shows the control value of 50% or less)”. Also, in experiment [3], the “Test B control value” is “H (H shows the control value of more than 50%)”. The “Test C control value” in experiment [4] is “H (H shows the control value of more than 50%)”. In addition, the “Test E control value” in experiment [5] is reported as “L (L shows the control value of 50% or less)”.

`CCc1c(-c2c(F)cccc2F)n(-c2cc(F)ccc2C)cc(Br)c1=O` [Compound 541]: the “Test D control value” in experiment [1] was “L (L shows the control value of 50% or less)”. The “Test G control value” in experiment [2] is “L (L shows the control value of 50% or less)”. Besides, the “Test B control value” in experiment [3] is “L (L shows the control value of 50% or less)”. Also, the “Test C control value” in experiment [4] is given as “H (H shows the control value of more than 50%)”. Also, the “Test E control value” in experiment [5] is recorded as “L (L shows the control value of 50% or less)”.

For the molecule `CCc1c(-c2c(F)cccc2F)n(-c2cc(F)ccc2C)cc(C)c1=O` [Compound 542], the “Test D control value” in experiment [1] was “L (L shows the control value of 50% or less)”. Also, the “Test G control value” in experiment [2] is “L (L shows the control value of 50% or less)”. Moreover, the “Test B control value” in experiment [3] is “H (H shows the control value of more than 50%)”. The “Test C control value” in experiment [4] is “H (H shows the control value of more than 50%)”. The “Test E control value” in experiment [5] is given as “L (L shows the control value of 50% or less)”.

`CCc1c(-c2c(F)cc(F)cc2F)n(-c2cccc(Cl)c2C)cc(C)c1=O` [Compound 547]: in experiment [1], the “Test D control value” was “H (H shows the control value of more than 50%)”. For the same molecule, the “Test G control value” in experiment [2] is reported as “H (H shows the control value of more than 50%)”. In experiment [3], the “Test B control value” is “H (H shows the control value of more than 50%)”. In addition, the “Test C control value” in experiment [4] was “H (H shows the control value of more than 50%)”. In addition, the “Test E control value” in experiment [5] is “H (H shows the control value of more than 50%)”.

Take `CCc1c(-c2c(F)cccc2F)n(-c2cccc(F)c2C)cc(Br)c1=O` [Compound 550]: the “Test D control value” in experiment [1] is listed as “L (L shows the control value of 50% or less)”. Besides, the “Test G control value” in experiment [2] was “L (L shows the control value of 50% or less)”. For the same molecule, in experiment [3], the “Test B control value” is listed as “H (H shows the control value of more than 50%)”. Also, in experiment [4], the “Test C control value” is given as “H (H shows the control value of more than 50%)”. The “Test E control value” in experiment [5] is “H (H shows the control value of more than 50%)”.

In the case of `CCc1c(-c2c(F)cccc2F)n(-c2cccc(OC)c2C)cc(C)c1=O` [Compound 551], in experiment [1], the “Test D control value” was “H (H shows the control value of more than 50%)”. Moreover, in experiment [2], the “Test G control value” is recorded as “L (L shows the control value of 50% or less)”. Also, the “Test B control value” in experiment [3] is on record as “H (H shows the control value of more than 50%)”. Further, in experiment [4], the “Test C control value” is listed as “H (H shows the control value of more than 50%)”. Moreover, the “Test E control value” in experiment [5] was “H (H shows the control value of more than 50%)”.
